# According to PubChem BioAssay AID1347073 (National Center for Advancing Translational Sciences (NCATS), 2019):
# Among all 45,000 compounds or so, about 200 (0.44%) were called active. Another 7% or so got no clear call; they are omitted. Calls come from the whole dose curve; as a rule, active = well fitted activation curve with a large enough effect; inconclusive = small, poorly fitted or top-dose-only effect; inactive = no such curve, though single readings can be large or run the other way. This is one part of the list.
# Assay: qHTS of TDP-43 Inhibitors: NCGC Sytravon Library Screen; note: 0% is about no effect; nearly all actives have a fitted effect of over 55% in size
# Details: yeast TDP-43 toxicity rescue, BacTiter-Glo growth, 24 h; series mostly up to 46.1 µM; growth rescue (activation): at the top concentration
# In short: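 TDP-43-expressing yeast, pregrown in raffinose, seeded at OD600 0.02 in galactose medium with compound for 24 hr at 30 deg C. Growth read by BacTiter-Glo luminescence, so rescue of toxicity appears as activation.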
row,Structure (SMILES),growth rescue (activation)
1,CNC(=S)N(CCCn1ccnc1)Cc1c(F)cccc1Cl,inactive: 3.16%
2,O=C(NCc1ccccc1)C(c1ccc(O)cc1)N(C(=O)c1cnccn1)c1ccccc1 (configuration not stated),inactive: 11.5%
3,O=C(/C=C/c1ccc(Cl)cc1)N(Cc1ccccc1)c1ccccn1,inactive: -8.06%
4,CCOc1ccc(NC(=O)Nc2ccc(Cc3ccncc3)cc2)cc1,inactive: 6.79%
5,NC(=O)c1ccc(Oc2ccc(Cl)c3ccccc23)c([N+](=O)[O-])c1,inactive: 11.2%
6,Cc1ccc(N(C)C(=O)c2ccc(CNc3c(N4CCC(C)CC4)c(=O)c3=O)cc2)cc1,inactive: 28.9%
7,Cc1cc(NS(=O)(=O)c2ccc(NC(=S)NCc3ccccc3)cc2)no1,inactive: 9.25%
8,Cc1ccc(N(C(C)C(=O)NCc2ccncc2)S(C)(=O)=O)cc1C (configuration not stated),inactive: -0.202%
9,COc1cc(OC)cc(C(=O)NC(C)c2ccc(Br)cc2)c1 (configuration not stated),inactive: 13.1%
10,Cc1ccc(S(=O)(=O)N2CCCCC2)cc1C(=O)NCc1ccncc1,inactive: -6.9%
11,Cc1ccc(NC(=O)C(C)NS(=O)(=O)c2ccc(F)cc2)cc1C (configuration not stated),inactive: 2.18%
12,Cc1occc1C(=O)N/N=C/c1ccccc1[N+](=O)[O-],inactive: 0.81%
13,CCNC(=O)C1CCCN(C(=O)c2cccc3ccccc23)CC1 (configuration not stated),inactive: -13.5%
14,CCOC(=O)/C(C#N)=C/c1cc2cc(C)c(C)cc2nc1Cl,inactive: 22.3%
15,CC1CCN(c2ccc(/C=C(\C#N)c3nn(-c4ccccc4)c(N)c3C#N)cc2[N+](=O)[O-])CC1,inactive: 0.0447%
16,O=C(/C=C/c1ccco1)N(Cc1ccc(F)cc1)C1CCS(=O)(=O)C1 (configuration not stated),inactive: -8.81%
17,COc1ccc(NC(C)=O)cc1S(=O)(=O)Nc1ccccc1C(=O)NCCc1ccccc1,inactive: 3.31%
18,O=C(N/N=C/C(Br)=C/c1ccccc1)c1cccs1,inactive: 12.9%
19,Cc1ccc(C(C)(C)C)cc1S(=O)(=O)N1CC(=O)Nc2ccccc21,inactive: -3.78%
20,CC(=O)c1sc(NC(=O)C2=NN(c3ccccc3)C(=O)CC2)nc1C,inactive: 4.02%
21,COc1ccc(CC(=O)Nc2cc(S(=O)(=O)N3CCOCC3)ccc2N2CCCC2)cc1OC,inactive: -5.75%
22,Cc1cc(-c2ccccc2)nc(N/N=C/c2ccc(O)cc2O)n1,inactive: 1.93%

row,Structure (SMILES),growth rescue (activation)
1,CC(=O)Nc1cccc(-c2csc(C(C)(NC(C)=O)c3ccccc3)n2)c1 (configuration not stated),inactive: -6%
2,CCc1ccc(CNC(=O)C2CCN(c3nnc(-n4c(C)ccc4C)s3)CC2)cc1,inactive: 19.9%
3,COc1ccc(/C=C(\NC(=O)c2ccccc2)C(=O)NCc2ccco2)cc1OC,inactive: 11.6%
4,CCCn1c(=O)c2ccccc2n2c(SC(C)C(N)=O)nnc12 (configuration not stated),inactive: 9.9%
5,NC(=O)C[N+]1(CC#CC(O)(c2ccccc2)c2ccccc2)CCCC1,inactive: -3.2%
6,NC(=O)c1ccsc1NC(=O)CSc1nncs1,inactive: 12.1%
7,COc1cccc(C(O)c2nc(-c3cccc(C(=O)O)c3)cs2)c1 (configuration not stated),inactive: 15.7%
8,CCOC(=O)N1CCN(C(=O)C2CCN(Cc3ccc(OC)cc3OC)CC2)CC1,inactive: -3.46%
9,Cc1ccc(S(=O)(=O)N2CCN(C(=O)CC(C)C)CC2)cc1,inactive: -10.5%
10,Cc1cc(NC(=O)c2ccc(F)cc2)ccc1NC(=O)c1ccco1,inactive: 2.22%
11,Cc1cccc2cc(CN(CCN(C)C)C(=S)NCc3ccco3)c(=O)[nH]c12,inactive: 14.8%
12,COCCOC(=O)c1[nH]c2c(c1C)C(=O)CC(c1cc(OC)c(OC)c(OC)c1)C2 (configuration not stated),inactive: 7.8%
13,Cc1ccc(C2=[N+]([O-])C(C)(C)N(O)C2(C)C)cc1,inactive: -2.17%
14,COc1ccc(CCNC(=O)CNC(=O)Cn2ccc3ccccc3c2=O)cc1OC,inactive: 8.86%
15,CC(C)[C@H](NC(=O)c1ccccc1F)C(=O)NCCc1ccccc1,inactive: 7.98%
16,CCCCc1nnc2c(N(C)S(=O)(=O)c3ccc(C)cc3)nc3ccccc3n12,inactive: -5.87%
17,CCCn1c(=N)c(S(=O)(=O)c2ccccc2)cc2c(=O)n3cccc(C)c3nc21,inactive: -5.46%
18,Oc1cccc(NC(=S)N=Nc2c(O)[nH]c3ccccc23)c1,inactive: 2.47%
19,COCC(=O)N(Cc1cc2ccccc2[nH]c1=O)c1ccccc1OC,inactive: 5.24%
20,CC1=C(C(=O)OCC2CCCO2)C(c2ccc(Cl)c(Cl)c2)NC(=O)N1 (configuration not stated),inactive: -11%
21,COc1ccc(C2CCCN2C(=S)Nc2ccc(C)cc2C)cc1OC (configuration not stated),inactive: 18.9%
22,Cc1noc(C)c1C(=O)N1CCCC(C)(C(=O)NS(=O)(=O)C2CC2)C1 (configuration not stated),inactive: 10.2%

row,Structure (SMILES),growth rescue (activation)
1,CCc1ccccc1Nc1nc2ccccc2n1C,inactive: -5.04%
2,CC(OC(=O)c1cccnc1)C(=O)Nc1ccc2c(c1)OCO2 (configuration not stated),inactive: -7.59%
3,Cc1cc(O)ccc1Nc1nc(-c2cccs2)cs1,inactive: -80.2%
4,O=C(Nc1ccc(F)c(Cl)c1)c1csc([C@H]2C[C@H](O)[C@@H](CO)O2)n1,inactive: 5.95%
5,O=C1NC(NS(=O)(=O)c2ccc(Cl)cc2)(C(F)(F)F)C(=O)N1Cc1cccnc1 (configuration not stated),inactive: 17.1%
6,Cc1cc(C)nc(N2CCCC(C(=O)Nc3nnc(C(C)(C)C)s3)C2)n1 (configuration not stated),inactive: 3.78%
7,O=C(COc1ccc2ccccc2c1)NNC(=O)c1cccs1,inactive: 3.62%
8,CCN1CCN(C(=O)c2ccc3c(c2)N(Cc2cc(C)ccc2C)C(=O)c2ccccc2S3(=O)=O)CC1,inactive: 12.2%
9,CCOC(=O)Nc1ccc(N2CCOCC2)c(S(=O)(=O)N2CCOCC2)c1,inactive: 12.2%
10,COc1ccc(S(=O)(=O)N2CCC(C(=O)NCc3cccnc3)CC2)cc1OC,inactive: -9.71%
11,COc1ccc(N2CCN(C(=O)CNC(=O)c3ccccc3Cl)CC2)cc1,inactive: 18.7%
12,Cc1ccc(Cl)c(OCCCN(C)Cc2ccccc2)c1,inactive: -4.04%
13,Cc1cccc(N2N=C(C(=O)OCC(=O)c3ccccc3)CCC2=O)c1,inactive: 26.3%
14,CC1(C(=O)NCC2CC2)CCN1C(=O)C1(c2ccc(Cl)cc2)CC1 (configuration not stated),inactive: 29.9%
15,CCN(CC)S(=O)(=O)c1ccc(C(=O)N2CCN(c3ncccn3)CC2)cc1,inactive: 0.252%
16,COc1ccc(/C=N/NC(=S)Nc2cc(S(=O)(=O)N3CCOCC3)ccc2N2CCOCC2)cc1O,inactive: 1.02%
17,Brc1ccc(COn2ccnc2)cc1,inactive: -7.75%
18,CCSc1nnc2nc3[nH]c4c(C)cccc4c3nn12,inactive: -6.47%
19,O=C(O)CSc1nnc(-c2cccc(S(=O)(=O)N3CCOCC3)c2)n1-c1cccc(Cl)c1,inactive: -6.87%
20,Cc1ccc(NS(=O)(=O)c2cc(C(=O)N3CCCC3)ccc2C)cc1C,inactive: 4.16%
21,COCC1CCN(Cc2cn[nH]c2-c2cc3ccccc3o2)C1 (configuration not stated),inactive: -2.89%
22,Cc1ccc(NC2=NCC(=O)N2C2CCCC2)cc1,inactive: 2.89%

row,Structure (SMILES),growth rescue (activation)
1,CC(Oc1ccc(Cl)cc1)C(=O)Nc1ccc(S(=O)(=O)Nc2nccs2)cc1 (configuration not stated),inactive: -20.8%
2,COc1ccccc1-c1cnn2c(NC3CCCC3)cc(C)nc12,inactive: -5.44%
3,c1ccc2c3c([nH]c2c1)CCNC3,inactive: 0.0563%
4,CN(C(=O)C(C)(C)C)c1ccc(OCC(=O)N2CCc3ccccc3C2)cc1,inactive: 13.3%
5,O=C(CCNC(=O)c1ccco1)Nc1ccccc1N1CCOCC1,inactive: 3.97%
6,CCOC(=O)CC1C(=O)NCCN1C(=O)c1cccc(C(F)(F)F)c1 (configuration not stated),inactive: 2.78%
7,CCOc1ccc(NC(=S)NNC(=S)Nc2cccc(C(F)(F)F)c2)cc1,inactive: 19.3%
8,COP(=O)(CC(=O)c1ccccc1)CC(=O)c1ccccc1,inactive: 10.8%
9,NS(=O)(=O)c1ccc(NC2=CC(=O)C(=O)c3ccccc32)cc1,inactive: -11.4%
10,CCC(c1nnc(SCC(=O)Nc2ccc(Cl)cc2C(F)(F)F)n1C1CCCCC1)N(C)C (configuration not stated),inactive: -7.98%
11,O=[N+]([O-])c1ccc(Cl)c(NC(=S)N2CCCC2)c1,inactive: 18.7%
12,c1ncn(C23CC4CC(CC(C4)C2)C3)n1,inactive: 14.8%
13,NS(=O)(=O)c1cccc(NC(=O)c2cccc(-c3ccc(O)cc3)c2)c1,inactive: 9.33%
14,CN(Cc1cnn(C)c1)C(=O)C1CCC(=O)N(Cc2ccc(Cl)cc2)C1 (configuration not stated),inactive: 10.9%
15,CCCn1c(N)c(C(=O)CSc2nnc(-c3c[nH]c4ccccc34)n2C2CC2)c(=O)[nH]c1=O,inactive: 4.33%
16,CN(Cc1ccccc1)C1=CC(=[N+]2CCCC2)CC(C)(C)C1,inactive: -11.9%
17,CCC(C)c1ccccc1NC(=O)C(C)N(C)Cc1cccc(OC)c1 (configuration not stated),inactive: 9.09%
18,COc1ccc(Cn2c(=O)[nH]c3cc(C(=O)NCCc4ccc(S(N)(=O)=O)cc4)ccc3c2=O)cc1,inactive: -15.2%
19,CCCCOC(=O)Nc1nnc(CCOCC)s1,inactive: 17.5%
20,Cc1ccsc1/C=N/NC(=O)C1C(=O)NCC1c1ccccc1 (configuration not stated),inactive: 5.06%
21,CCCNC(=O)C1(C)CCN(Cc2ccc(OCc3ccccc3)cc2)C1 (configuration not stated),inactive: 1.31%
22,CCn1c2ccccc2c2cc(NC(=O)CNCc3ccccc3OC)ccc21,inactive: 1.39%

row,Structure (SMILES),growth rescue (activation)
1,COc1ccccc1NC(=O)Nc1cccc(C(=O)O)c1,inactive: 5.63%
2,CSc1ccccc1NC(=O)COC(=O)/C=C/c1ccco1,inactive: 32.5%
3,COc1ccccc1/C=C/C(=O)NCc1ccccn1,inactive: 3.93%
4,COc1ccc(CNC(=O)COC(=O)c2cccn2C)cc1,inactive: -16.9%
5,O=C(c1ccncc1)N1CCN(S(=O)(=O)c2ccccc2F)CC1,inactive: 2.88%
6,N#C/C(=C\c1ccccc1)C(=O)N1CCC(C(N)=O)CC1,inactive: -5.77%
7,O=C(NCc1ccc(F)cc1)c1cnc(Cl)c(Cl)c1,inactive: 23.9%
8,CCOc1ccccc1N(CC(=O)NC1CCCCC1)C(=O)c1nsc(Cl)c1Cl,inactive: 21.5%
9,O=C(CCNc1n[nH]c(=O)[nH]c1=O)N/N=C\c1cccc(OCc2ccccc2)c1,inactive: 7.28%
10,COCCNC(=O)C1(C)CCCN(Cc2c(C)nn(-c3ccccc3)c2C)C1 (configuration not stated),inactive: 8.23%
11,O=C(Nc1cc(Br)ccc1O)c1cc(-c2ccc3c(c2)OCO3)on1,inactive: -9.44%
12,CN(CCC#N)C(=O)COC(=O)c1nn(-c2ccccc2)c(=O)c2ccccc12,inactive: -11.4%
13,COc1ccc(NC(=O)c2nc(S(=O)(=O)Cc3ccc(C)cc3)ncc2Cl)cc1,inactive: 3.27%
14,CCCCn1c(SCC(=O)Nc2ccc(NC(C)=O)cc2)nc2ccccc2c1=O,inactive: 5.04%
15,COc1ccc(C(C(=O)NC2CCCCC2)N(C(=O)c2snc(C(N)=O)c2N)c2ccccc2OC)cc1 (configuration not stated),inactive: 27.5%
16,Clc1ccc(-c2cnc3n2CCCCC3)cc1,inactive: 11%
17,COc1ccc(OCC(=O)Nn2c(-c3ccc(C)cc3)nc3ccccc3c2=O)cc1,inactive: 2.16%
18,Cc1cc(C)nc(SCC(N)=O)n1,inactive: 4.33%
19,CCOC(=O)C1(CCCc2ccccc2)CCN(Cc2cn(CC)nc2C)CC1,inactive: -5.58%
